Results from patent US11161864B2, “Sting agonists” (Venenum Biodesign, LLC, priority 2018, dated 2021).

Legend:
[1] = target: wildtype (WT) STING protein, THP1 Dual (WT) human cells (Homo sapiens (Human), UniProt Q86WV6, H232R)
[2] = target: HAQ STING protein, THP1 Dual (HAQ) human cells (Homo sapiens (Human), UniProt Q86WV6, G230A/H232R/R293Q/R71H)
[3] = tested on: STING pathway, RAW-Dual Reporter cell line; experiment: cells; conditions: for EC50: read-out: Murine Agonist EC50

wildtype (WT) STING protein, THP1 Dual (WT) human cells, sequence (Q86WV6 whole entry H232R): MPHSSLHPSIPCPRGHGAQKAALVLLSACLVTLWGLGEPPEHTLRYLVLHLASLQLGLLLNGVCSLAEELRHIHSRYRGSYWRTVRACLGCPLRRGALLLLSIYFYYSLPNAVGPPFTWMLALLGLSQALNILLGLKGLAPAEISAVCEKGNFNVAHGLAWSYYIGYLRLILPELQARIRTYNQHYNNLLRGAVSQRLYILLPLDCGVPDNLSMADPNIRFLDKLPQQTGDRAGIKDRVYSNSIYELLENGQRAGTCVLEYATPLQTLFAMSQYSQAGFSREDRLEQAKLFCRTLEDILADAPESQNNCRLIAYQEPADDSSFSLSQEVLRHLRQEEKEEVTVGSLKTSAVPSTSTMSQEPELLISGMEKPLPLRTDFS
HAQ STING protein, THP1 Dual (HAQ) human cells, sequence (Q86WV6 whole entry R71H/G230A/H232R/R293Q): as the sequence (Q86WV6 whole entry H232R) above, with R71H, G230A, R293Q counted along it

SMILES | Human WT Agonist Efficacy [1] [%] | Human HAQ Agonist Efficacy [2] [%] | Murine Agonist Efficacy ([3]; 5 hrs) [%] | EC50 ([3]; 5 hrs) [µM] | Murine Agonist Efficacy [3] [%] | EC50 [3] [µM] | Human WT Agonist Efficacy ([1]; 5 hrs) [%] | Human HAQ Agonist Efficacy ([2]; 5 hrs) [%]
Nc1nc2c(ncn2[C@@H]2O[C@@H]3COP(=O)(S)OCCn4nc(-c5cncs5)nc4COP(=O)(S)O[C@@H]2[C@@H]3F)c(=O)[nH]1 (single isomer, unassigned) [Example 16C] | >100 | >100 | >100 | < 10 | – | – | – | –
Nc1nc2c(ncn2[C@@H]2O[C@@H]3COP(=O)(S)OCCn4c(nc5cc(Cl)cnc54)COP(=O)(S)O[C@@H]2[C@@H]3F)c(=O)[nH]1 (single isomer, unassigned) [Example 14D] | <100 | >100 | >100 | < 10 | – | – | – | –
NC(=O)c1cnc2c(c1)nc1n2CCOP(=O)(S)OC[C@H]2O[C@@H](n3cnc4c(=O)[nH]c(N)nc43)[C@H](OP(=O)(S)OC1)[C@@H]2F (stereo partly drawn) [Example 37B, (1S,21R,23R,24R)-23-(2-Amino-6-oxo-6,9-dihydro-1H-purin-9-yl)-24-fluoro-3,18-dioxo-3,18-disulfanyl-2,4,17,19,22-pentaoxa-7,12,14-triaza-3lambda,5,18lambda5-diphosphater] | >100 | >100 | – | – | >100 | < 10 | – | –
N#Cc1cnc2c(c1)nc1n2CCOP(=O)(S)OC[C@H]2O[C@@H](n3cnc4c(=O)[nH]c(N)nc43)[C@H](OP(=O)(S)OC1)[C@@H]2F (single isomer, unassigned) [Example 38D] | >100 | >100 | – | – | >100 | < 10 | – | –
Nc1nc2c(ncn2[C@@H]2O[C@@H]3COP(=O)(S)OCCCn4c(nc5cncnc54)COP(=O)(S)O[C@@H]2[C@@H]3F)c(=O)[nH]1 (single isomer, unassigned) [Example 18D] | – | – | <100 | 100 to 999 | – | – | <100 | >100
Nc1nc2c(ncn2[C@@H]2O[C@@H]3COP(=O)(S)O[C@H]4C[C@H](C4)n4c(nc5cncnc54)COP(=O)(S)O[C@@H]2C3)c(=O)[nH]1 (single isomer, unassigned) [Example 35C] | – | – | >100 | 10 to 99.9 | – | – | <100 | >100
Cc1ncc2nc3n(c2n1)CCOP(=O)(S)OC[C@H]1O[C@@H](n2cnc4c(=O)[nH]c(N)nc42)[C@H](OP(=O)(S)OC3)[C@@H]1F (single isomer, unassigned) [Example 11A] | – | – | >100 | 10 to 99.9 | – | – | <100 | >100
Nc1nc2c(ncn2[C@@H]2O[C@@H]3COP(=O)(S)OCCn4c(nc5cncnc54)COP(=S)(S)O[C@@H]2[C@@H]3F)c(=O)[nH]1 (single isomer, unassigned) [Example 29A] | – | – | >100 | 10 to 99.9 | – | – | <100 | >100
Nc1nc2c(ncn2[C@@H]2O[C@@H]3COP(=O)(S)OCCn4c(nc5c(=O)[nH]cnc54)COP(=O)(S)O[C@@H]2[C@@H]3F)c(=O)[nH]1 (stereo partly drawn) [Example 3D, (1S,21R,23R,24R)-23-(2-Amino-6-oxo-6,9-dihydro-1H-purin-9-yl)-24-fluoro-3,18-disulfanyl-2,4,17,19,22-pentaoxa-7,10,12,14-tetraaza-3lambda5,18lambda5-diphosphatetracyclo[19.2.1.06,14.08,13]tetracosa-6,8(13),11-triene-3,9,18-trione] | <100 | <100 | <100 | – | – | – | – | –
Nc1nc2c(ncn2[C@@H]2O[C@@H]3COP(=O)(S)O[C@H]4C[C@H](C4)n4c(nc5cncnc54)COP(=O)(S)O[C@@H]2C3)c(=O)[nH]1 (single isomer, unassigned) [Example 35D] | – | – | <100 | 100 to 999 | – | – | <100 | >100
Nc1nc2c(ncn2[C@@H]2O[C@@H]3COP(=O)(S)OCCn4nc(-c5ccncc5)nc4COP(=O)(S)O[C@@H]2[C@@H]3F)c(=O)[nH]1 (stereo partly drawn) [Example 34D, (1S,17R,19R,20R)-19-(2-Amino-6-oxo-6,9-dihydro-1H-purin-9-yl)-20-fluoro-8-(pyridin-4-yl)-3,14-disulfanyl-2,4,13,15,18-pentaoxa-7,9,10-triaza-3lambda5,14lambda5-diphosphatricyclo[15.2.1.06,10]icosa-6,8-diene-3,14-dione] | <100 | <100 | <100 | – | – | – | – | –
Nc1nc2c(ncn2[C@@H]2O[C@@H]3COP(=O)(S)OCC(F)(F)Cn4c(nc5cncnc54)COP(=O)(S)O[C@@H]2[C@@H]3F)c(=O)[nH]1 (single isomer, unassigned) [Example 19D] | >100 | >100 | >100 | < 10 | – | – | – | –
CO[C@H]1[C@H]2OP(=O)(S)OCc3nc4cncnc4n3CCOP(=O)(S)OC[C@H]1O[C@H]2n1cnc2c(=O)[nH]c(N)nc21 (stereo partly drawn) [Example 27D, (1R,21R,23R,24R)-23-(2-Amino-6-oxo-6,9-dihydro-1H-purin-9-yl)-24-methoxy-3,18-disulfanyl-2,4,17,19,22-pentaoxa-7,10,12,14-tetraaza-3lambda5,18lambda5-diphosphatetracyclo[19.2.1.06,14.08,13]tetracosa-6,8,10,12-tetraene-3,18-dione] | – | – | >100 | – | – | – | >100 | >100
Nc1nc2c(ncn2[C@@H]2O[C@@H]3COP(=O)(S)OCCn4c(nc5cncnc54)COP(=S)(S)O[C@@H]2[C@@H]3F)c(=O)[nH]1 (single isomer, unassigned) [Example 29B] | – | – | >100 | < 10 | – | – | >100 | >100
Nc1nc2c(ncn2[C@@H]2O[C@@H]3COP(=O)(S)OCC(F)(F)Cn4c(nc5cncnc54)COP(=O)(S)O[C@@H]2[C@@H]3F)c(=O)[nH]1 (single isomer, unassigned) [Example 19B] | <100 | <100 | <100 | 100 to 999 | – | – | – | –
Nc1nc2c(ncn2[C@@H]2O[C@@H]3COP(=O)(S)OCCn4c(nc5cncnc54)COP(=O)(S)O[C@@H]2C3)c(=O)[nH]1 (single isomer, unassigned) [Example 22D] | >100 | >100 | >100 | < 10 | – | – | – | –
Nc1nc2c(ncn2[C@@H]2O[C@@H]3COP(=O)(S)OCCCn4c(nc5cncnc54)COP(=O)(S)O[C@@H]2[C@@H]3F)c(=O)[nH]1 (single isomer, unassigned) [Example 18C] | – | – | >100 | < 10 | – | – | >100 | >100
Nc1nc2c(ncn2[C@@H]2O[C@@H]3COP(=O)(S)OCCn4c(nc5cc(Cl)cnc54)COP(=O)(S)O[C@@H]2[C@@H]3F)c(=O)[nH]1 (single isomer, unassigned) [Example 14C] | >100 | >100 | >100 | < 10 | – | – | – | –

Like-named read-outs stand apart in the source and are kept apart here.
